# Experimental data reported in PubChem BioAssay AID1768 (National Center for Advancing Translational Sciences (NCATS), 2009).
# Hit rate of the full screen: of about 270,000 compounds, about 620 (0.23%) were called active. The inconclusive results got no clear call from the source; some entries with a clear call stand among them for comparison. Calls follow the shape of the dose curve; as a rule, active = well fitted inhibition curve with a large enough effect in the polarisation, with a control signal flat (not every such curve was filed as active); inconclusive = small, poorly fitted or top-dose-only effect, or effect the other way, or a change in a side signal; inactive = no such curve, though single readings can be large or run the other way; the % refers to the polarisation. Potencies of inconclusive entries are doubtful fits and often do not repeat. A note “side channel” means that the fit belongs to a control or component signal, not to the main read-out.
# Target: Menin (Homo sapiens) (UniProt O00255)
# Sequence of UniProt O00255 (O00255 whole entry, looked up): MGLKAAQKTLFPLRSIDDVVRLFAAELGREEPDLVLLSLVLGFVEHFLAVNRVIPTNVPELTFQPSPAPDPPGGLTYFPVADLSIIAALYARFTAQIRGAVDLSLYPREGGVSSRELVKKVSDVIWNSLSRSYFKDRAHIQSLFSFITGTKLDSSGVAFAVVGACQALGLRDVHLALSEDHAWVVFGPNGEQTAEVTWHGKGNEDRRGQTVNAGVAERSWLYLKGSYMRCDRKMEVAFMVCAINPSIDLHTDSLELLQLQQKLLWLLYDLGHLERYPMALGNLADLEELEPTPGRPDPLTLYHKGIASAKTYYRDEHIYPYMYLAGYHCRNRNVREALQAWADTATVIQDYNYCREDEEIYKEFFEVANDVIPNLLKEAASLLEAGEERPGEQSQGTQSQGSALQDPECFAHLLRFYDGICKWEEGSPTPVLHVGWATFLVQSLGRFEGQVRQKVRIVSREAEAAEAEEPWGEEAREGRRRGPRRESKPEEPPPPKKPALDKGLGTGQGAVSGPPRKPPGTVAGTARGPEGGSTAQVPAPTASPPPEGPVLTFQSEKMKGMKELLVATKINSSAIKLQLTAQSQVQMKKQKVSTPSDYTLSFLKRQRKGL
# Test: qHTS Assay for Inhibitors Targeting the Menin-MLL Interaction in MLL Related Leukemias: Competition With Texas Red Labeled MLL-derived Mutant Peptide
# Details: fluorescence polarization; series mostly up to 61.6 µM
# Potency is read from the fitted curve at half-maximal effect; tags tell the direction and shape of the fitted curve or compound fluorescence and quenching.
row,Structure (SMILES),Potency
1,O=C(Nc1cc(Br)c(O)c(Br)c1)c1cccc(NC(=O)c2ccco2)c1,"inconclusive: 14.1 µM [quencher, side channel, partial curve]"
2,COc1ccc(N=Nc2cc(-c3ccccc3)ccc2O)cc1,"inconclusive: 28.2 µM [quencher, side channel, partial curve]"
3,CC(=O)Nc1cc(C(=O)O)ccc1S(=O)(=O)c1ccc(Cl)cc1,"inconclusive: 15.8 µM [inhibitor, partial curve, poor fit]"
4,CCc1nnc(NC(=O)c2sc3nc4cc(C)ccc4cc3c2N)s1,"inconclusive: 17.8 µM [quencher, side channel, single point]"
5,C=CCn1c(SC2CCOC2=O)nc2sc(C)c(C)c2c1=O (stereo unspecified),"inconclusive: 35.5 µM [inhibitor, single point]"
6,Cc1cc(NC(=O)c2sc3ccccc3c2O)no1,"inconclusive: 20 µM [quencher, side channel, partial curve]"
7,Cc1ccc(S(=O)(=O)Nc2nc3ccc(S(C)(=O)=O)cc3s2)cc1,"inconclusive: 20 µM [quencher, side channel, partial curve]"
8,O=C(CC(NC(=O)C(F)(F)F)c1ccccc1)Nc1nnc(CCc2ccccc2)s1 (stereo unspecified),"inconclusive: 7.94 µM [inhibitor, full curve]"
9,COc1ccccc1/C=C1\S/C(=N/NC(=O)c2cccc(Br)c2)NC1=O,"inconclusive: 5.62 µM [quencher, side channel, partial curve]"
10,COc1ccc(-c2csc(N(CCCN(C)C)C(=O)c3ccc(F)cc3)n2)cc1,"inconclusive: 10 µM [inhibitor, partial curve]"
11,Cc1ccc(-n2c(Cc3cccc4ccccc34)n[nH]c2=S)c(C)c1,"inconclusive: 14.1 µM [inhibitor, partial curve]"
12,Cc1ccc(-c2nc(CS(=O)CC(=O)NC3CCC(C)CC3)c(C)o2)cc1 (stereo unspecified),"inconclusive: 22.4 µM [fluorescent, side channel, partial curve]"
13,Cc1nc2c(sc(=S)n2Cc2ccco2)c(=O)n1CC(=O)Nc1ccc(F)cc1,inactive
14,Cc1noc(C)c1-c1cc(Nc2ccccc2)ncn1,"inconclusive: 39.8 µM [quencher, side channel, single point]"
15,O=C1C=CC(=O)c2c(O)c(Cl)c(Cl)c(O)c21,"inconclusive: 22.4 µM [quencher, side channel, partial curve]"
16,O=c1cc(-c2cc3ccccc3o2)c2cc(O)ccc2o1,"inconclusive: 39.8 µM [inhibitor, single point]"
17,COc1cc(CNC(C)C23CC4CC(CC(C4)C2)C3)ccc1OCC(=O)NC(C)(C)C (stereo unspecified),"inconclusive: 7.08 µM [fluorescent, side channel, partial curve]"
18,Fc1nc(F)c(F)c(NCCCNc2c(F)c(F)nc(F)c2F)c1F,"inconclusive: 11.2 µM [quencher, side channel, partial curve]"
19,O=C(NC1=C(NC2CCS(=O)(=O)C2)C(=O)c2ccccc2C1=O)c1ccccc1 (stereo unspecified),"inconclusive: 28.2 µM [quencher, side channel, partial curve]"

row,Structure (SMILES),Potency
1,Cc1ccc(C(=O)NC(=S)/C=C2\N(C)c3ccccc3C2(C)C)cc1,"inconclusive: 22.4 µM [fluorescent, side channel, partial curve]"
2,O=C(NCCCCN1CCN(c2cccc(Cl)c2Cl)CC1)c1ccc2c(c1)Cc1ccccc1-2,"inconclusive: 35.5 µM [fluorescent, side channel, single point]"
3,O=C(NCC(c1ccco1)N1CCCCC1)C(c1ccccc1)c1ccccc1 (stereo unspecified),"inconclusive: 12.6 µM [fluorescent, side channel, partial curve]"
4,OCC1=C[C@@H](O)[C@@H]2C=CO[C@@H](OC3O[C@H](CO)[C@@H](O)[C@H](O)[C@H]3O)[C@H]12 (stereo partly specified),inactive
5,CCn1cc(C(=O)N2CCOCC2)c(=O)c2cc(S(=O)(=O)N(C)C3CCCCC3)ccc21,"inconclusive: 7.08 µM [inhibitor, full curve, poor fit]"
6,CCc1nnc(NC(=O)CSc2sc3c(O)cc(=O)[nH]c3c2C#N)s1,"inconclusive: 35.5 µM [quencher, side channel, single point]"
7,CCC1(C)C(Nc2c(C)cccc2C)=NC(=S)N1c1ccc(NC(C)=O)cc1 (stereo unspecified),"inconclusive: 1 µM [inhibitor, full curve, poor fit]"
8,COc1cc(/C=C2/SC(=NCc3ccccc3)N(Cc3ccccc3)C2=O)ccc1O,"inconclusive: 10 µM [quencher, side channel, partial curve]"
9,OC(COCc1ccccc1)CN1CCN(c2ccccc2F)CC1 (stereo unspecified),"inconclusive: 5.62 µM [inhibitor, single point]"
10,O=C(N/N=C/c1cn(-c2ccccc2)nc1-c1cc2ccccc2o1)c1cccnc1,"inconclusive: 28.2 µM [quencher, side channel, partial curve]"
11,O=C(O)c1ccc(CSc2nc3ccccc3c(=O)n2-c2ccccc2)cc1,"inconclusive: 17.8 µM [quencher, side channel, single point]"
12,COC(=O)c1cc2sccc2n1CC(=O)Nc1cccc(SC)c1,"inconclusive: 20 µM [quencher, side channel, partial curve]"
13,Cc1c(C(=O)NCc2ccc3c(c2)cc(C)n3C)cccc1[N+](=O)[O-],"inconclusive: 25.1 µM [fluorescent, side channel, single point]"
14,O=C(CCCOc1ccccc1)NCc1ccco1,"inconclusive: 25.1 µM [inhibitor, partial curve]"
15,CCCCC[C@H](O)/C=C/[C@@H]1[C@H]2C/C(=C/CCCC(=O)O)C[C@H]2C[C@H]1O,"inconclusive: 39.8 µM [inhibitor, single point]"
16,Cn1c2ccccc2c2cc(/C=N/NC(=O)c3ccc(O)cc3O)ccc21,"inconclusive: 25.1 µM [quencher, side channel, partial curve]"
17,CCc1ccc(NC(=O)NNC(=O)c2ccc3ccccc3c2O)cc1,"inconclusive: 31.6 µM [quencher, single point]"
18,O=C(NC(=S)Nc1ccc(NC(=O)c2cccs2)cc1)c1cc2ccccc2o1,"inconclusive: 1.58 µM [quencher, side channel, full curve, poor fit]"
19,O=[N+]([O-])c1cc(/C=N/O)ccc1Oc1ccccc1Cl,"inconclusive: 39.8 µM [quencher, side channel, single point]"

row,Structure (SMILES),Potency
1,c1csc(-c2csc(-c3cccs3)n2)c1,"inconclusive: 25.1 µM [quencher, side channel, single point]"
2,COc1ccc2cc(C(=O)N3CCN(c4ccc(F)cc4)CC3)[nH]c2c1,"inconclusive: 35.5 µM [inhibitor, single point]"
3,Cc1cc(C)cc(NC(=O)CN2CCN(c3ccccc3)CC2)c1,"inconclusive: 3.98 µM [inhibitor, full curve]"
4,O=S(=O)(Nc1nc(-c2ccccc2)cs1)c1cccc(C(F)(F)F)c1,"inconclusive: 6.31 µM [quencher, side channel, single point]"
5,Cc1cc(CNC(=O)COc2ccc(F)cc2Cl)cc(C)c1O,"inconclusive: 35.5 µM [fluorescent, side channel, single point]"
6,CSc1nnc(-c2ccco2)c(-c2ccco2)n1,"inconclusive: 28.2 µM [quencher, side channel, single point]"
7,CCCOc1cccc(C2C(C(=O)c3ccco3)=C(O)C(=O)N2c2nnc(C)s2)c1 (stereo unspecified),"inconclusive: 28.2 µM [quencher, side channel, single point]"
8,Oc1c(Br)cc(/C=N/Nc2ccc(Cl)nn2)cc1Br,"inconclusive: 15.8 µM [quencher, side channel, partial curve]"
9,CC1CCN(S(=O)(=O)c2ccc3[nH]cc(C(=O)NCCN4CCOCC4)c(=O)c3c2)CC1,inactive
10,COc1cc2c(cc1OC)-c1nncn1C(C)(C)C2,"inconclusive: 3.55 µM [inhibitor, partial curve]"
11,O=C1CC(c2ccc(F)cc2)SC(N(c2ccccc2)c2ccccc2)=N1 (stereo unspecified),"inconclusive: 10 µM [fluorescent, side channel, partial curve]"
12,COc1cc(/C=C2\SC(=S)N(NC(=O)c3cccc(O)c3)C2=O)ccc1O,"inconclusive: 10 µM [fluorescent, side channel, partial curve]"
13,O=C1Nc2ccccc2O/C1=C\c1ccccc1,"inconclusive: 35.5 µM [inhibitor, single point]"
14,O=C(NC(CSCc1ccccc1)C(=O)N/N=C/c1ccc(O)cc1O)c1ccc([N+](=O)[O-])cc1 (stereo unspecified),"inconclusive: 15.8 µM [quencher, side channel, partial curve]"
15,O=C(O)CN1C(=O)/C(=C2\SC(=S)N(C(Cc3ccccc3)C(=O)O)C2=O)c2ccccc21 (stereo unspecified),"inconclusive: 28.2 µM [quencher, side channel, single point]"
16,CC(C)(C)c1ccc(S(=O)(=O)/C=C/C#N)cc1,inactive
17,COC(=O)c1cn[nH]c1NC(=S)Nc1ccc(Cl)c(Cl)c1,"inconclusive: 10 µM [quencher, side channel, partial curve]"
18,O=C(/C=C/c1cc([N+](=O)[O-])ccc1OC(F)F)Nc1cccc2ccccc12,"inconclusive: 8.91 µM [quencher, side channel, partial curve, poor fit]"
